Source: PubChem BioAssay AID1345082 (National Center for Advancing Translational Sciences (NCATS), 2018)
In all, about 94,000 compounds went through this assay and about 4,000 (4.3%) were called active. The shares of active, inactive and inconclusive entries below differ from those in the screen. Calls follow the shape of the dose curve; as a rule, active = well fitted inhibition curve with a large enough effect; inconclusive = small, poorly fitted or top-dose-only effect; inactive = no such curve, though single readings can be large or run the other way. Potencies of inconclusive entries are doubtful fits and often do not repeat.

Assay: Cytotoxic Profiling in NIH 3T3 Cell Line of Diverse Libraries Using Quantitative High-Throughput Screening; also: nearly all actives have a fitted effect of over 55% in size
Conditions: NIH 3T3 viability, CellTiter-Glo ATP luminescence, 48-72 h; series mostly up to 96.7 µM
How it was run: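 Luminescent ATP readout (CellTiter-Glo, 10 min RT) after 48 or 72 hr compound exposure of NIH 3T3 cells seeded at 400 cells/well in 1536-well format; quantitative HTS.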
Potency is read from the fitted curve at half-maximal effect; tags tell the direction and shape of the fitted curve.

Compound | Potency
COc1cccc(C(=O)N2CCCN(c3ccc4nnc(-c5ccccc5)n4n3)CC2)c1 | inconclusive: 50.1 µM [inhibitor, partial curve, poor fit]
COc1cccc(-c2cccc(C(=O)N3CCN(C(=O)c4ccc(Cl)cc4)CC3)c2)c1 | inconclusive: 44.7 µM [inhibitor, partial curve, poor fit]
O=C(NCCc1ccccc1F)c1nc2sccn2c1-c1ccc(C(F)(F)F)cc1 | active: 28.2 µM
NC(=O)c1ccc(NC(=O)C2CC(=O)N(c3n[nH]c4cccc(F)c34)C2)cc1 (stereo not given) | inconclusive: 44.7 µM [inhibitor, partial curve]
Cc1cc2cc(-c3c(C)noc3C)nc(NCc3cccnc3)c2o1 | inconclusive: 17.8 µM [inhibitor, full curve]
COc1ccccc1CN1CCc2nc(C3CC3)nc(-c3ccc(O)cc3)c2CC1 | inconclusive: 44.7 µM [inhibitor, partial curve, poor fit]
Cc1cccc(N2CCN(C(=O)c3ccc4c(c3)N(C)C3CCCCCN3C4=O)CC2)c1 (stereo not given) | inconclusive: 50.1 µM [inhibitor, partial curve, poor fit]
O=C(CNC(=O)c1cccc(-c2ccc(C(F)(F)F)cc2)c1)NCc1ccccc1F | inconclusive: 31.6 µM [inhibitor, full curve]
COc1ccc(-c2ccnc3nc(CCc4ccccc4)nn23)c(F)c1 | inconclusive: 70.8 µM [inhibitor, single point]
CCOC(=O)[C@@H]1CN(C(=O)OCC(C)C)[C@H]2c3cccc(C)c3O[C@@H]12 | inconclusive: 44.7 µM [inhibitor, partial curve, poor fit]
CSCC(=O)N[C@H]1CCN2C(=O)c3cc(-c4ccc(Cl)cc4)ccc3NC(=O)[C@H]12 | inconclusive: 70.8 µM [inhibitor, partial curve]
CC(C)C(=O)N[C@H]1C[C@@H](Cc2cc(COc3ccccc3)on2)C1(C)C | active: 63.1 µM
FC(F)(F)c1cccc(C2=NOC3(CCCN(Cc4ccccn4)C3)C2)c1 (stereo not given) | inconclusive: 35.5 µM [inhibitor, partial curve, poor fit]
O=C1C[C@@H]2CCN(C(=O)Nc3ccccc3)C[C@@H]2CCN1CCc1cnc[nH]1 | inactive
Cc1ccc([S+](=O)([O-])N2CC(=O)N(CCc3ccccc3)CC(O)C2)cc1 (stereo not given) | inconclusive: 50.1 µM [inhibitor, partial curve, poor fit]
O=C(CC1CCN(C(=O)C2CCCCC2)C1)NCc1ccccc1 (stereo not given) | inconclusive: 11.2 µM [inhibitor, partial curve, poor fit]
O=C1c2c(nc(CNc3ccc(OC(F)(F)F)cc3)n2Cc2ccccc2)NCCN1CCN1CCOCC1 | inconclusive: 70.8 µM [inhibitor, partial curve, poor fit]
COc1cccc(CNC(=O)Nc2cccc(-c3ccc(N4CCCCC4)nn3)c2)c1 | inconclusive: 31.6 µM [inhibitor, full curve, poor fit]
COc1ccc(-c2ccc(C(=O)N3CCCC3)cc2)nn1 | active: 17.8 µM
COC(=O)[C@@H]1CCCN1c1ccc(-c2nc(-c3ccccc3F)no2)cn1 | inconclusive: 50.1 µM [inhibitor, partial curve, poor fit]

Compound | Potency
COCCN1Cc2ccc(NCc3ccccc3)nc2C(C)(C(=O)NC2COC2)C1 (stereo not given) | inconclusive: 79.4 µM [inhibitor, partial curve]
COCCCNc1nc(-c2c(C)noc2C)cc2cc(CN(C)C)oc12 | inconclusive: 89.1 µM [inhibitor, partial curve]
CCN(C(=O)c1ccc2c(c1)N(S(C)(=O)=O)CC2)c1ccccc1 | inactive
Cc1noc(C)c1-c1cc2c(cc(C)n2CCN(C)C)c(-c2ccsc2)n1 | inconclusive: 35.5 µM [inhibitor, single point]
Cc1ccc([S+](=O)([O-])N2CCN(C(=O)c3nc4cccnc4n(Cc4ccccc4)c3=O)CC2)cc1 | inactive
COc1ccccc1C(=O)NC[C@H]1Cn2c(-c3ccc(Cl)cc3)cnc2CO1 | active: 10 µM
CCc1cc(=O)n(CC(=O)Nc2ccc(N(C)C)cc2)c(-c2cccc(F)c2)n1 | inconclusive: 39.8 µM [inhibitor, partial curve, poor fit]
COc1ccc(OC)c(CNC(=O)C23CCC=C2N(C2CCCC2)C(=O)CC3)c1 (stereo not given) | inactive
Cc1ccc2c(C)c(C(=O)N3C[C@@H](NS(C)(=O)=O)[C@H](C(C)C)C3)oc2c1 | inconclusive: 89.1 µM [inhibitor, single point]
Cc1noc([C@@H]2CN(C(=O)Cc3c(F)cccc3Cl)C[C@H]2C(N)=O)n1 | inactive
Cc1noc(-c2cccc(F)c2)c1C(=O)NCCCc1ccccc1 | inconclusive: 50.1 µM [inhibitor, partial curve, poor fit]
CN1C[C@H](O)C[C@H]1c1nnc2n1CCN(Cc1ccc(F)c(F)c1)C2 | inactive
CC(NC(=O)OCc1ccccc1)c1nc2cccnc2n1C1CCCCC1 (stereo not given) | inconclusive: 44.7 µM [inhibitor, partial curve, poor fit]
Cc1ccc(S(=O)(=O)N2CCC(n3cnnc3-c3ccccc3)CC2)cc1Cl | inconclusive: 50.1 µM [inhibitor, partial curve, poor fit]
O=C(NCc1ccc(F)cc1)N1CCC(OCCOc2ccc(F)cc2)CC1 | inconclusive: 7.08 µM [inhibitor, full curve, poor fit]
CCc1noc(-c2ccn3c(CNC(=O)c4ccoc4)nnc3c2)n1 | inactive
Cn1cccc1CN1CCn2c(nn(-c3ccc(Cl)cc3)c2=O)C1 | inconclusive: 35.5 µM [inhibitor, partial curve]
CN(Cc1ccon1)Cc1cc2n(n1)CCN(C(=O)c1ncoc1C1CC1)C2 | inactive
O=C(NCC1CC1)c1cc2n(n1)CC(c1ccc(Cl)cc1)OC2 (stereo not given) | active: 39.8 µM
Cn1nccc1C(=O)NCC1COc2ncncc2C(=O)N1Cc1ccccc1 (stereo not given) | inconclusive: 56.2 µM [inhibitor, partial curve, poor fit]
